Data from PubChem BioAssay AID1508623 (National Center for Advancing Translational Sciences (NCATS), 2021).
About 450 (0.94%) of roughly 48,000 compounds were called active. The inconclusive results got no clear call from the source; some entries with a clear call stand among them for comparison. Calls follow the shape of the dose curve; as a rule, active = well fitted inhibition curve with a large enough effect; inconclusive = small, poorly fitted or top-dose-only effect; inactive = no such curve, though single readings can be large or run the other way. Potencies beside an inconclusive call are fits to weak or partial responses and may not hold up.

Assay: Primary qHTS for Identification of Small Molecule Inhibitors of Huntingtin Promoter Activity; also: nearly all actives have a fitted effect of over 50% in size
Settings: HEK293 HTT promoter firefly luciferase reporter (activity 0% = vehicle and -100% = no light), 24 h; series mostly up to 57.5 µM
How it was run: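 HEK293 cells carrying firefly luciferase reporters were seeded at 2,500 per well in Opti-MEM and cultured for 24 h. They were then treated with compounds at up to 57.5 uM final for 24 h at 37 degrees C before Dual-Glo luminescence readout.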
Potency is read from the fitted curve at half-maximal effect; tags tell the direction and shape of the fitted curve.

Row | Compound | Potency
1 | COc1ccc(CNC(=O)C(C)n2nc(C)c3c(C)n(-c4ccccc4)nc3c2=O)c(OC)c1 (centres undefined) | inconclusive: 28.2 µM [inhibitor, partial curve, poor fit]
2 | Cc1oc(-c2ccccc2F)nc1CN1CCC(C(=O)NCCc2ccccc2)CC1 | inactive
3 | Cc1ccc(CNC(=O)Cc2csc3ccccc23)cc1 | inactive
4 | COc1ccc(-c2cnc(C)o2)cc1S(=O)(=O)Nc1ccc(OC(F)(F)F)cc1 | inconclusive: 25.1 µM [inhibitor, single point]
5 | COc1cc(OC)c(NC2=C(c3ccc(C(F)(F)F)cc3)C(=O)c3ccccc32)cc1Cl | inconclusive: 28.2 µM [inhibitor, partial curve]
6 | OCCCn1c(-c2ccc(F)cc2)csc1=Nc1ccc(F)cc1 | inconclusive: 25.1 µM [inhibitor, partial curve, poor fit]
7 | Cc1ccc2c(=O)c(C(=O)c3ccc(F)cc3)cn(CC(=O)Nc3ccc4c(c3)OCCO4)c2n1 | inconclusive: 35.5 µM [inhibitor, partial curve, poor fit]
8 | O=C(CSc1nccn1C1CCCC1)Nc1cc(C(F)(F)F)ccc1Cl | inconclusive: 35.5 µM [inhibitor, single point]
9 | O=C(c1ccc2c(c1)N(Cc1ccccc1)C(=O)c1ccccc1S2(=O)=O)N1CCc2ccccc21 | inactive
10 | Cc1c(NC(=O)C(C)(C)Oc2ccc(Cl)cc2)cccc1-c1nc2ccccc2o1 | inconclusive: 28.2 µM [inhibitor, partial curve, poor fit]
11 | COC[C@H](NC(=O)c1cnc(C)s1)C(=O)N[C@@H](COC)C(=O)N[C@@H](Cc1ccccc1)C(=O)[C@@]1(C)CO1 | inconclusive: 0.544 µM [inhibitor, full curve]
12 | O=S(=O)(c1ccc(Cl)cc1)c1nc(-c2ccco2)oc1SCc1ccccc1F | inconclusive: 25.1 µM [inhibitor, partial curve]
13 | CCOc1ccc(OCC(=O)NCCS(=O)(=O)N2CCN(c3cccc(Cl)c3)CC2)cc1 | inconclusive: 14.1 µM [inhibitor, partial curve, poor fit]
14 | CCn1c(C(=O)Nc2ccc(C)cc2C)cc2sc(Cl)cc21 | inconclusive: 28.2 µM [inhibitor, partial curve]
15 | Cc1oc2ncnc(N3CCOCC3)c2c1C(=O)NCCc1ccccc1 | inactive
16 | Cc1ccc(NS(=O)(=O)c2ccc3nc(-c4ccccc4)[nH]c3c2)c(Br)c1 | inconclusive: 39.8 µM [inhibitor, single point]
17 | CCc1ccccc1NC(=O)CCC(=O)N1CC(C)Oc2ccc(C)cc21 (centres undefined) | inconclusive: 22.4 µM [inhibitor, partial curve, poor fit]
18 | Cc1ccc(C)c(N2CCN(S(=O)(=O)c3ccc(C(=O)N(C)C)s3)CC2)c1 | inconclusive: 31.6 µM [inhibitor, single point]
19 | COc1ccc(NC(=O)c2c(NC(=O)COc3ccccc3)sc3c2CCCCC3)cc1 | inactive
20 | Cc1ccccc1CNC(=O)CCC(=O)N1CCSc2ccccc21 | inconclusive: 20 µM [inhibitor, partial curve, poor fit]

Row | Compound | Potency
21 | COc1ccc(NC(=O)CC2C(=O)N(c3cccc(OC)c3)C(=O)N2CCC2=CCCCC2)cc1 (centres undefined) | inconclusive: 31.6 µM [inhibitor, single point]
22 | Cc1cccc(CN2CCN(CC(=O)NCCc3ccc(Cl)cc3)C2=O)c1 | inactive
23 | CCOC(=O)c1ccccc1NC(=O)CN1C(=O)CC(c2ccccc2)Sc2ccccc21 (centres undefined) | inconclusive: 39.8 µM [inhibitor, single point]
24 | Fc1ccccc1N1CCN(c2ncnc3onc(-c4ccc(Cl)cc4)c23)CC1 | inconclusive: 28.2 µM [inhibitor, partial curve, poor fit]
25 | O=C(Nc1ccc(N2CCN(c3ccc(F)cc3)CC2)c(C(=O)O)c1)c1cccs1 | inactive
26 | O=C(NCc1ccc(Cl)cc1)C1CCC(CNS(=O)(=O)c2ccccc2)CC1 (centres undefined) | inactive
27 | COc1ccccc1N1CCN(c2ncnc3c2cnn3-c2ccc(C)cc2)CC1 | inconclusive: 35.5 µM [inhibitor, partial curve, poor fit]
28 | O=C(C1CC1)N1CCc2cc(Br)cc(S(=O)(=O)Nc3ccc(F)c(F)c3)c21 | inconclusive: 28.2 µM [inhibitor, partial curve, poor fit]
29 | CCOc1ccc(N(Cc2ccccc2)C(=O)c2nc(SC)ncc2Cl)cc1 | inconclusive: 22.4 µM [inhibitor, partial curve, poor fit]
30 | Cc1nn(C)c2c1c(C(F)(F)F)cc(=O)n2Cc1ccc(Br)cc1F | inconclusive: 39.8 µM [inhibitor, single point]
31 | Cc1cccc(NC(=O)CSc2nc3n[nH]c(C)c3c(=N)n2-c2cccc(Cl)c2)c1 | inconclusive: 28.2 µM [inhibitor, single point]
32 | Cc1cc(C)cc(C(=O)NCCc2sc(-c3ccc(F)cc3)nc2C)c1 | inactive
33 | Clc1ccc(C(c2ccc(Cl)cc2)n2cc[n+](CC(OCc3ccc(Cl)cc3Cl)c3ccc(Cl)cc3Cl)c2)cc1 (centres undefined) | inconclusive: 30.6 µM [inhibitor, single point]
34 | Cc1nn2c(=O)cc(COC(=O)c3cccc(NC(=O)c4ccc(F)cc4)c3)nc2s1 | inconclusive: 39.8 µM [inhibitor, single point]
35 | Cc1cccc(C(C)C)c1NC(=O)c1ccc2c(c1)CCN2S(C)(=O)=O | inconclusive: 35.5 µM [inhibitor, single point]
36 | CCn1c(CN2CCC(C)CC2)nc2cc(NC(=O)c3ccc([N+](=O)[O-])cc3)ccc21 | inconclusive: 1.78 µM [inhibitor, full curve, poor fit]
37 | CCOc1ccc(S(=O)(=O)N2CCC(c3ccncc3)CC2)cc1 | inconclusive: 20 µM [inhibitor, partial curve, poor fit]
38 | COc1cccc(NC(=O)c2oc3ccc(S(=O)(=O)N4CCCCCC4)cc3c2C)c1 | inconclusive: 17.8 µM [inhibitor, partial curve, poor fit]
39 | COc1cccc(NC(=O)C2CCN(S(=O)(=O)c3ccc4[nH]c5c(c4c3)CCCCC5)CC2)c1 | inconclusive: 28.2 µM [inhibitor, single point]
40 | CCOC(=O)c1ccc(NC(=O)Cn2c3ncccc3c(=O)n2-c2ccc(C)c(C)c2)cc1 | inconclusive: 22.4 µM [inhibitor, partial curve, poor fit]

Row | Compound | Potency
41 | COc1ccc(OC)c(NC(=O)N2CC3CCCN3c3ccccc32)c1 (centres undefined) | inconclusive: 35.5 µM [inhibitor, single point]
42 | CC(=O)c1ccc(NC(=O)CC2Oc3ccc(C)cc3NC2=O)cc1 (centres undefined) | inactive
43 | CCOC(=O)c1cccc(NC(=O)N2CC=C(c3c[nH]c4ccccc34)CC2)c1 | inconclusive: 14.1 µM [inhibitor, partial curve, poor fit]
44 | Cc1cc(Nc2ccc(Br)c(C)c2)n2nc(-c3ccco3)nc2n1 | inconclusive: 28.2 µM [inhibitor, single point]
45 | CCOC(=O)c1ccccc1NC(=O)COC(=O)CC(C)(C)CC1=NS(=O)(=O)c2ccccc2N1 | inconclusive: 31.6 µM [inhibitor, partial curve, poor fit]
46 | CCOc1ccc(N(CC)S(=O)(=O)N2CCCC(C(=O)Nc3ccc(OC)c(Cl)c3)C2)cc1 (centres undefined) | inconclusive: 28.2 µM [inhibitor, single point]
47 | COc1ccc(-c2cc3nc(C)c(CCC(=O)NC(C)c4ccccc4)c(C)n3n2)c(OC)c1 (centres undefined) | inconclusive: 39.8 µM [inhibitor, single point]
48 | NC(=O)CSc1nc2ccc(NC(=O)COc3ccccc3Cl)cc2s1 | inactive
49 | Cc1cccc(-n2nc(C)c(C(=O)N3CCN(c4ccccc4)CC3)c2-n2cccc2)c1 | inconclusive: 22.4 µM [inhibitor, partial curve, poor fit]
50 | CS(=O)(=O)N(Cc1ccccc1)c1ccc(C(=O)Nc2ccc(Cl)cc2)cc1 | inconclusive: 25.1 µM [inhibitor, single point]
51 | Cc1ccc(C)c(N2CCN(C(=O)C(CC(C)C)NS(=O)(=O)c3ccc4nc(C)sc4c3)CC2)c1 (centres undefined) | inconclusive: 25.1 µM [inhibitor, single point]
52 | CCOc1ccc(-c2cc(C(=O)NCCc3ccc(OC)c(OC)c3)c3c(-c4ccc(F)cc4)[nH]nc3n2)cc1 | inconclusive: 28.2 µM [inhibitor, single point]
53 | COc1cccc(-c2nc(SCC(=O)Nc3ccc4c(c3)OCCO4)c(-c3ccc(C)cc3)[nH]2)c1 | inconclusive: 25.1 µM [inhibitor, partial curve]
54 | Cc1cccc(OCCCn2c(CCNC(=O)C3CCCCC3)nc3ccccc32)c1 | inconclusive: 28.2 µM [inhibitor, partial curve, poor fit]
55 | Cn1cc(S(=O)(=O)c2cccc(Cl)c2)c(=O)c2cc(F)c(N3CCCCC3)cc21 | inconclusive: 39.8 µM [inhibitor, single point]
56 | CCCN1C(=O)C(Cc2nc3ccccc3c(=O)n2-c2ccc(OC)cc2)c2cc(C)ccc21 (centres undefined) | inactive
57 | Cc1ccc(C(=O)Nc2ccc3oc(-c4ccccc4C)nc3c2)cc1 | inactive
58 | Cc1cc(NC(=O)c2cccn2-c2nnc(N3CCCCC3)s2)ccc1Br | inconclusive: 22.4 µM [inhibitor, single point]
59 | COc1cc(C2Nc3ccccc3-c3nnc(SCc4ccc(C)cc4)nc3O2)cc(OC)c1O (centres undefined) | inconclusive: 39.8 µM [inhibitor, partial curve, poor fit]
